Laboratory results: article PMC4336329 (PLoS ONE, 2015)
Hit rate of the full screen: of about 310,000 compounds, about 14,000 (4.5%) showed an effect of 50% or more. Effects have a minus sign here. The list shows a part of the results.

Biological target: human ether-à-go-go-related gene (hERG) potassium channel (human, UniProt Q12809)
Assay: primary screen, population patch clamp on CHO cells stably expressing hERG
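Note: peak tail current of the secondary pulse compared with the same well before compound.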

human ether-à-go-go-related gene (hERG) potassium channel, sequence (Q12809 whole entry, looked up): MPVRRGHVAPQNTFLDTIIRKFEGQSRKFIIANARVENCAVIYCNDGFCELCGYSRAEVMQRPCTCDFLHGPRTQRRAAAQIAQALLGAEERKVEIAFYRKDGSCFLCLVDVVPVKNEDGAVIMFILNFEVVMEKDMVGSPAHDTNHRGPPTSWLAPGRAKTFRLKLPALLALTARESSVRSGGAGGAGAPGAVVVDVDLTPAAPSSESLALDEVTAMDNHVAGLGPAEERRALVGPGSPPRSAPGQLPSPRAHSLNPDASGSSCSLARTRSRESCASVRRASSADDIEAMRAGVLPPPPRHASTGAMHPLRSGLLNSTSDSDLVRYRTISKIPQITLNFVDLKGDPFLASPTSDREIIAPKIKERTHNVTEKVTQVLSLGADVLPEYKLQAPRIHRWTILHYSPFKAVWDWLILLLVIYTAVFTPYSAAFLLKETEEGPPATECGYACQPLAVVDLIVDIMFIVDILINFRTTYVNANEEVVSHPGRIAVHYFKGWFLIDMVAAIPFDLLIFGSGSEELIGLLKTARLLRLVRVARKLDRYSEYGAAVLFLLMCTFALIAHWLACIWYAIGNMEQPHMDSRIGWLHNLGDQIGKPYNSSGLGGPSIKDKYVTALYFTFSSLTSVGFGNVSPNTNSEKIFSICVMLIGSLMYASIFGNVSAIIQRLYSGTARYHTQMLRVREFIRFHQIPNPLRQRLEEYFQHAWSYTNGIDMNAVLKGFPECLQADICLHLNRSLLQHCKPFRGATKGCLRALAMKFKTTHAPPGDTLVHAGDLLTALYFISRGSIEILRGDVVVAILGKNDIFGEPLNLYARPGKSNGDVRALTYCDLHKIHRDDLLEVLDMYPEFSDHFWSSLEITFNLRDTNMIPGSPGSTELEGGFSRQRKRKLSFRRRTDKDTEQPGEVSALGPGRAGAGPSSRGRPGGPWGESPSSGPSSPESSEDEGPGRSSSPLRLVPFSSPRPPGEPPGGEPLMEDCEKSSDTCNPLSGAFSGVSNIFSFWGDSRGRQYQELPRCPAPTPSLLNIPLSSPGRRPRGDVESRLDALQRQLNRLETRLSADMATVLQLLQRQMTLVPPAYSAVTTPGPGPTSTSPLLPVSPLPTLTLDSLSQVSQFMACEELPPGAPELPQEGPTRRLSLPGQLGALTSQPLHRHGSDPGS

SMILES	hERG current change (%, negative = inhibition) at 10uM [%]
Cn1c(C(=O)O)c(CC(=O)Nc2ccc3c(c2)OCCO3)c2ccccc21	28
O=C(NCCc1ccccc1)C1CCN(Cc2ccccc2F)CC1.O=C(O)C(=O)O	1.53
c1ccc(C2=Nc3c(ccc4ccccc34)C(c3ccncc3)=NN2)cc1	4.64
COC(=O)c1cccc(CSc2nc3ccccc3[nH]2)c1	-22.5
Cc1cc(NC(=O)c2nn(C)c(C)c2[N+](=O)[O-])no1	10.5
Cc1ccc(-c2csc3nnc(SCC(=O)Nc4nsc(-c5ccccc5)n4)n23)cc1	-62.9
CCc1nnc2n1N=C(c1ccc(Br)cc1)CS2	-3.75
Cc1ccc(NC(=O)CCC(=O)OCC(=O)c2ccc(-c3ccccc3)cc2)cc1	-3.97
Cc1ccc(C(=O)CCC2CCCC2=O)cc1 (stereo not shown)	-1.6
Cc1ccc(C(=O)Nc2ccc(Br)c(C(F)(F)F)c2)cc1	4.38
CC(C)C(=O)Nc1cc2c3c(c1)CCN3C(=O)CC2	12.6
COC(=O)C1=NNC2(c3ccc(Cl)cc3)C(=O)N(c3ccccc3)C(=O)C12 (stereo not shown)	-3.13
COc1ccc(-c2csc(NC(=O)C3CSC4(C)CCC(=O)N34)n2)cc1 (stereo not shown)	17.7
CCN(C(=O)CN1CCN(c2cccc(Cl)c2)CC1)c1c(N)n(Cc2ccccc2)c(=O)[nH]c1=O	1.16
COc1cccc(/C=N/NC(=O)c2ccc3nc[nH]c3c2)c1	11.8
CCOC(=O)c1c(-c2ccc(C)o2)csc1NC(=O)CN1CCC(C(N)=O)CC1	-49.6
CC1Cc2cc(C3(O)C(=O)c4ccccc4C3=O)ccc2N1 (stereo not shown)	0.579
CCOC(=O)c1cnc(SCc2ccc(C(C)(C)C)cc2)nc1N	3.26
CCOC(=O)C1CCCN(C(=O)CC(C)c2ccccc2)C1 (stereo not shown)	-1.45
COC(=O)C1=C(N)c2ccccc2C1(C#N)c1ccccc1 (stereo not shown)	-10.2
O=C(Cn1nc(C(F)(F)F)c2c1CCC2)Nc1ccccc1C(F)(F)F	9.54
COc1ccc(-c2c(C)c3cc(O)ccc3oc2=O)cc1OC	5.27
Fc1ccc(CNC(=S)Nc2cccc(Cl)c2)cc1	-1.57

SMILES	hERG current change (%, negative = inhibition) at 10uM [%]
CCOC(=O)c1cnc2ccc(OCC)cc2c1N1CCN(c2ccccc2)CC1	13.9
O=C(c1ccc(S(=O)(=O)Nc2ccc(F)cc2)cc1)N1CCN(c2ccccn2)CC1	-27.4
CC(C)(C)c1ccc(C(=O)NCc2nnc(SCC(=O)NC3CCCCC3)o2)cc1	4.98
Cc1cc(N2C(=O)C3C4CC(c5ccccc5)C(C4)C3C2=O)no1 (stereo not shown)	5.27
O=c1[nH]c(N2CCN(Cc3ccccc3)CC2)nc2c1CCC2	18.9
Nc1nnc(SCc2cc3c(cc2Cl)OCO3)s1	-14.1
CCOC(=O)Cn1nc(C)c(NC(=O)CCc2ccc(OC)cc2)c1C	24.4
Cc1ccc(NC(=S)NN(C)c2nc(C)cnc2C)cc1	6.26
CC(NC(=O)Cc1cccs1)c1ccncc1 (stereo not shown)	3.83
CC(C)C[C@H](NC(=O)OC(C)(C)C)C(=O)N[C@@H](CO)[C@H](O)[C@@H]1C[C@@H]1C(=O)NC1CCCCC1	4.59
O=C(Cn1ccc2ccccc2c1=O)NCCC(=O)NC1CCN(Cc2ccccc2)CC1	-3.36
Cn1c(N2CCN(C(=O)NCc3ccccc3)CC2)nc2ccccc21	-60
Cc1ccc(S(=O)(=O)N(C)C)cc1NC(=O)CCCNC(=O)c1ccc(Cl)cc1	-13.8
Cc1ccc(-c2ccc(C)c(N)c2C)c(C)c1N	11.4
CCN(c1ccc(OC)cc1)c1ncnc2nc[nH]c12	-8.04
CN(C(=O)c1ccc(OC2CCN(S(=O)(=O)N(C)C)CC2)cc1)C1CCCCC1	28.5
COc1ccc2oc(C(=O)OCC(=O)NC3CCCC3)c(C)c2c1	0.285
CCN(CC1CCCO1)C(=O)c1cc(COc2ccc(F)cc2F)on1 (stereo not shown)	-14.8
Cn1c(O)c(C(c2ccccn2)c2c(O)n(C)c(=S)n(C)c2=O)c(=O)n(C)c1=S	18.9
Cc1c(Cl)cccc1NC(=S)N1CCCN(Cc2ccccc2F)C1	3
O=C(NNC(=O)c1ccc2nonc2c1)Nc1ccc(Cl)cc1	9.22
O=C(N/N=C/c1ccc(F)cc1)c1ccccc1	24.8
CN(C)CC#CCC(O)(c1ccccc1)c1ccccc1	-2.15

SMILES	hERG current change (%, negative = inhibition) at 10uM [%]
O=C(c1cccc(S(=O)(=O)N2CCCC2)c1)N1CCCC(C(F)(F)F)C1 (stereo not shown)	2.39
COc1cccc(CNC(=O)C2CCCN(S(=O)(=O)c3cccc4nonc34)C2)c1 (stereo not shown)	-0.218
O=C(COc1ccc(Cl)cc1)Nc1cccc(-c2ccc3nncn3n2)c1	-51.9
O=C(Cc1cccs1)Nc1ccc(-c2nnc(-c3ccccc3)o2)cc1	0.14
CCCCOc1ncnc2c1[nH]c1ccccc12	20.1
O=C(O)CCC(=O)NNC(=O)c1ccc([N+](=O)[O-])cc1	-9.06
CS(=O)(=O)N(CC(=O)Nc1ccc2c(c1)OCCO2)c1ccc2c(c1)OCO2	-0.586
COc1ccc(S[C@@H](CCN2CC[C@H](C)CCC2=O)c2ccccc2)cc1	-5.65
CC(NS(=O)(=O)c1ccc(Br)cc1)C(=O)NCc1ccc2c(c1)OCO2 (stereo not shown)	-10.6
COc1ccc(CCNS(=O)(=O)c2ccc(N3CCCC3=O)cc2)cc1	5.2
Cc1ccc(CNC(C)(C)CO)cc1	1.98
CC(C)N(Cc1nccn1C)C(=O)CC1C(=O)NCCN1Cc1ccc(F)cc1 (stereo not shown)	15.7
Cc1cccc(NC(=O)CCC2CCN(C(=O)c3ccc(C)s3)CC2)c1	-65.5
Cn1c(Cn2c(=O)sc3ccccc32)nnc1SCC(=O)N1CCCc2ccccc21	-20.5
O=C(COC(=O)C1CC2C=CC1C2)Nc1cccc(S(=O)(=O)N2CCOCC2)c1 (stereo not shown)	-40.3
NC(=S)N/N=C/c1ncc(C(F)(F)F)cc1Cl	20.4
Cc1ccc(Nc2cc(-c3ccccc3)nc3ncnn23)cc1	2.62
Cl.Clc1ccc(CNC2CCCC2)c(Cl)c1	-16.5
O=C(/C=C/c1cccc(Cl)c1)NCCN1CCOCC1	-14.7
CCCC1=Nc2cc(C(=O)N3CCCC3)ccc2Sc2ccc(C)cc21	-19.9
CC(CNC(=O)c1ccc(C(C)(C)C)cc1)CN(C)C.Cl (stereo not shown)	-8.15
Cc1c(NC(=O)c2n[nH]c(=O)c3ccccc23)c(=O)n(-c2ccccc2)n1C	32.7
OCC1(CCOc2ccccc2)CCN(Cc2nc3ccc(F)cc3[nH]2)CC1	-55

SMILES	hERG current change (%, negative = inhibition) at 10uM [%]
COc1ccc2nc(N/C(=N/S(=O)(=O)c3cccs3)c3ccccc3Cl)sc2c1	10.7
Cc1ccc(NC(=O)c2cccc(S(C)(=O)=O)c2)cc1	8.82
COC(=O)c1ccccc1NC(=O)/C=C/c1ccco1	5.68
Oc1ccc2ccccc2c1CN1CCN(C/C=C/c2ccccc2)CC1	14
CC(=O)Nc1nc2ccc(NC(=O)c3ccco3)cc2s1	6.98
Cc1cc(CNC(=O)c2cc(-c3ccccc3)nc3ccccc23)nn1C	-1.51
O=C(c1ncc[nH]1)c1ccccc1Cl	-24.7
CCOc1ccc(NC(=O)CC2C(=O)N(c3cccc(OC)c3)C(=O)N2CCOC)cc1 (stereo not shown)	-5.19
CCN(CC(N)=O)S(=O)(=O)c1ccc(F)cc1	0.358
S=c1[nH]c(-c2ccccc2)cn1/N=C/c1ccncc1	4.65
O=C(NCc1ccccn1)Nc1ccc(Cl)cc1Cl	18.1
Fc1ccc(-c2[nH]ncc2CN(CC2CCC2)CC2CCCO2)c(F)c1 (stereo not shown)	7.7
CSc1ccccc1NC(=O)CN(C)C(C)C(=O)Nc1ccc(C#N)cc1 (stereo not shown)	-63.1
CN(CCCNC(=O)c1ccccc1F)CCCNC(=O)c1ccccc1F	-10.1
CCCCN(C(=O)c1ccc(Cl)cc1)C1CC2CCC(C1)N2C.Cl (stereo not shown)	-47.4
CN(C)CCCN(C(=O)c1cc(Cl)sc1Cl)c1nc2cc3c(cc2s1)OCO3.Cl	-41.9
Cc1cc(Br)ccc1N1C(=O)CC(=O)NC1=O	5
Cc1cc(C)nc(SCc2ccccc2C#N)n1	-4.37
CCNS(=O)(=O)c1ccc(C)c(-n2cnnn2)c1C	-6.17
CCC(=O)Nc1ccc(C(=O)CSc2nnc(-c3ccc(NS(C)(=O)=O)cc3)n2C)cc1OC	10.3
CC(C)C(=O)N1CCN(c2ccccc2N)CC1	-0.151
Cc1ccccc1OC1=NS(=O)(=O)c2ccccc21	20.6
